From the supplement of paper PMC7826260
Some of the results follow. Viral Rep nickase domains cut single-stranded DNA in vitro (1 h at 37 °C, 3 µM enzyme); the outer parts of the 90-letter strands are left off. A value is the log2 ratio of uncut reads to the pool without enzyme; strong cutting gives strongly negative numbers. There is no active / inactive call. Shares of all reads are compared; values above 0 arise when much of the pool is cut.

These sequences were tested on T1, Rep nickase domain of tomato golden mosaic virus (assay: uncleaved DNA left, log2 of reads against the no-enzyme library (log2 ratio); higher = less cleavage (more negative = more Rep cleavage of the k-mer); sequences stand for … in CTCGTCCG…ACCGGAGA).
T1 sequence (protein, residues 1-124, tag omitted): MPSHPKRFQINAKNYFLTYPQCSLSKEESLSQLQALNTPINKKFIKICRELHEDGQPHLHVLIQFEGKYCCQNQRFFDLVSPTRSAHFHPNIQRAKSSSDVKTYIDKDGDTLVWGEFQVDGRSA
Experimental: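 A pool of 90-nt single-stranded DNAs with seven random bases just before the constant AC of the nick site (name = the seven bases) was cut by 3 µM recombinant His6-SUMO-tagged Rep nickase domain (300 nM DNA, 50 mM HEPES pH 8.0, 50 mM NaCl, 1 mM MnCl2, 1 h, 37 °C, three replicates). Uncut DNA was amplified and sequenced.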

Sequence	uncleaved DNA left (log2)
GTCTGGA	0.137
CGAGTCT	0.107
TGCACTC	-0.068
GAGGAGA	0.195
CTACACT	-0.0917
CCGGAAC	0.138
CGGAGCC	-0.11
AGCAACG	0.00761
GAGCGGC	0.0515
TGGGAAG	0.13
CTCCAGC	-0.0212
TTAAGAA	-0.0885
ATATCGA	-0.0279
TACGATG	-0.175
GAACCGT	-0.106
GAGCGAT	0.115
CCTAGCA	-0.159
CCAAAAT	0.131
TGAGTCG	-0.0594
CGATGGG	0.0114

Sequence	uncleaved DNA left (log2)
TCTATAA	0.0478
GCTGGTC	0.0251
GGCCGCA	-0.0235
CGCGGGA	0.0543
ATTAATA	0.022
AGAGGGT	0.143
CAGCGGT	-0.113
CCACCCT	-0.117
TCCCGAT	0.00736
TAATGTC	-3.45
GTTTGCT	-0.0313
GGGCTGT	0.0782
CCCGAGG	-0.0812
ATCAGCT	-0.00816
TATCAGT	-0.144
CCCGCAT	-0.147
TCCACCC	-0.148
GAGCCGA	0.085
TTCCTCA	0.0556
CACTTTA	-0.181
